{
  "source": "the supplement of paper PMC8728848",
  "assay_in_all_cases": "glycan array binding signal (z-score within array); higher = stronger binding",
  "settings_in_all_cases": "glycan notation: IUPAC condensed, linker removed",
  "key": {"[1]": {"molecular_target": "Neu5Ac(a2-6)Gal(b1-4)GlcNAc(b1-3)[Neu5Ac(a2-6)Gal(b1-4)GlcNAc(b1-6)]GalNAc", "procedure,_shortened": "(§1)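 The binding signal is a Z-score computed within each array. Data were drawn from 3228 arrays in the Consortium for Functional Glycomics database, restricted to those with a known protein sequence. Scores were averaged over arrays of the same protein sequence at different concentrations or buffers, and over linkers, and negative values can be taken as non-binding.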"}, "[2]": {"molecular_target": "Neu5Ac(a2-6)Gal(b1-4)GlcNAc(b1-6)GalNAc", "procedure,_shortened": "as §1"}, "[3]": {"molecular_target": "Neu5Ac(a2-6)Gal(b1-4)GlcNAc(b1-6)[Gal(b1-3)GlcNAc(b1-3)]Gal(b1-4)Glc", "procedure,_shortened": "as §1"}, "[4]": {"molecular_target": "Neu5Ac(a2-6)Gal(b1-4)GlcNAc(b1-6)[Gal(b1-3)]GalNAc", "procedure,_shortened": "as §1"}, "[5]": {"molecular_target": "Neu5Ac(a2-6)Gal(b1-4)GlcNAc6S", "procedure,_shortened": "as §1"}, "Neu5Ac(a2-6)GalNAc": {"molecular_target": "Neu5Ac(a2-6)GalNAc", "procedure,_shortened": "as §1"}, "[6]": {"molecular_target": "Neu5Ac(a2-6)GalNAc(b1-4)GlcNAc", "procedure,_shortened": "as §1"}, "[7]": {"molecular_target": "Neu5Ac(a2-6)GalNAc(b1-4)GlcNAc6S", "procedure,_shortened": "as §1"}, "[8]": {"molecular_target": "Neu5Ac(a2-6)GlcNAc(b1-4)GlcNAc", "procedure,_shortened": "as §1"}, "[9]": {"molecular_target": "Neu5Ac(a2-6)GlcNAc(b1-4)GlcNAc(b1-4)GlcNAc", "procedure,_shortened": "as §1"}, "Neu5Ac(a2-8)Neu5Ac": {"molecular_target": "Neu5Ac(a2-8)Neu5Ac", "procedure,_shortened": "as §1"}, "[10]": {"molecular_target": "Neu5Ac(a2-8)Neu5Ac(a2-3)Gal(b1-3)GalNAc(b1-4)[Neu5Ac(a2-3)]Gal(b1-4)Glc", "procedure,_shortened": "as §1"}, "[11]": {"molecular_target": "Neu5Ac(a2-8)Neu5Ac(a2-3)Gal(b1-3)GalNAc(b1-4)[Neu5Ac(a2-8)Neu5Ac(a2-3)]Gal(b1-4)Glc", "procedure,_shortened": "as §1"}, "[12]": {"molecular_target": "Neu5Ac(a2-8)Neu5Ac(a2-3)Gal(b1-4)Glc", "procedure,_shortened": "as §1"}, "[13]": {"molecular_target": "Neu5Ac(a2-8)Neu5Ac(a2-3)Gal(b1-4)GlcNAc", "procedure,_shortened": "as §1"}, "[14]": {"molecular_target": "Neu5Ac(a2-8)Neu5Ac(a2-3)[Gal(b1-3)GalNAc(b1-4)]Gal(b1-4)Glc", "procedure,_shortened": "as §1"}, "[15]": {"molecular_target": "Neu5Ac(a2-8)Neu5Ac(a2-3)[GalNAc(b1-4)]Gal(b1-4)Glc", "procedure,_shortened": "as §1"}, "[16]": {"molecular_target": "Neu5Ac(a2-8)Neu5Ac(a2-8)Neu5Ac", "procedure,_shortened": "as §1"}, "[17]": {"molecular_target": "Neu5Ac(a2-8)Neu5Ac(a2-8)Neu5Ac(a2-3)Gal(b1-4)Glc", "procedure,_shortened": "as §1"}, "[18]": {"molecular_target": "Neu5Ac(a2-8)Neu5Ac(a2-8)Neu5Ac(a2-3)[Gal(b1-3)GalNAc(b1-4)]Gal(b1-4)Glc", "procedure,_shortened": "as §1"}, "[19]": {"molecular_target": "Neu5Ac(a2-8)Neu5Ac(a2-8)Neu5Ac(a2-3)[GalNAc(b1-4)]Gal(b1-4)Glc", "procedure,_shortened": "as §1"}, "[20]": {"molecular_target": "Neu5Ac(a2-8)Neu5Ac(a2-8)Neu5Ac(a2-8)Neu5Ac(a2-3)[GalNAc(b1-4)]Gal(b1-4)Glc", "procedure,_shortened": "as §1"}, "[21]": {"molecular_target": "Neu5Ac(a2-8)Neu5Gc(a2-3)Gal(b1-4)GlcNAc", "procedure,_shortened": "as §1"}, "[22]": {"molecular_target": "Neu5Ac(b2-6)Gal(b1-4)GlcNAc", "procedure,_shortened": "as §1"}, "Neu5Ac(b2-6)GalNAc": {"molecular_target": "Neu5Ac(b2-6)GalNAc", "procedure,_shortened": "as §1"}, "[23]": {"molecular_target": "Neu5Ac9Ac(a2-3)Gal(b1-3)GlcNAc", "procedure,_shortened": "as §1"}, "[24]": {"molecular_target": "Neu5Ac9Ac(a2-3)Gal(b1-4)GlcNAc", "procedure,_shortened": "as §1"}, "[25]": {"molecular_target": "Neu5Ac9Ac(a2-6)Gal(b1-4)GlcNAc", "procedure,_shortened": "as §1"}, "[26]": {"molecular_target": "Neu5Gc(a2-3)Gal(b1-3)GlcNAc", "procedure,_shortened": "as §1"}, "[27]": {"molecular_target": "Neu5Gc(a2-3)Gal(b1-3)[Fuc(a1-4)]GlcNAc", "procedure,_shortened": "as §1"}, "Neu5Gc(a2-3)Gal(b1-4)Glc": {"molecular_target": "Neu5Gc(a2-3)Gal(b1-4)Glc", "procedure,_shortened": "as §1"}, "[28]": {"molecular_target": "Neu5Gc(a2-3)Gal(b1-4)GlcNAc", "procedure,_shortened": "as §1"}, "[29]": {"molecular_target": "Neu5Gc(a2-3)Gal(b1-4)GlcNAc(b1-3)Gal(b1-4)GlcNAc(b1-2)Man(a1-3)[Neu5Gc(a2-3)Gal(b1-4)GlcNAc(b1-3)Gal(b1-4)GlcNAc(b1-2)Man(a1-6)]Man(b1-4)GlcNAc(b1-4)GlcNAc", "procedure,_shortened": "as §1"}, "[30]": {"molecular_target": "Neu5Gc(a2-3)Gal(b1-4)[Fuc(a1-3)]GlcNAc", "procedure,_shortened": "as §1"}, "[31]": {"molecular_target": "Neu5Gc(a2-6)Gal(b1-4)GlcNAc", "procedure,_shortened": "as §1"}, "Neu5Gc(a2-6)GalNAc": {"molecular_target": "Neu5Gc(a2-6)GalNAc", "procedure,_shortened": "as §1"}, "[32]": {"molecular_target": "Neu5Gc(a2-8)Neu5Ac(a2-3)Gal(b1-4)GlcNAc", "procedure,_shortened": "as §1"}, "[33]": {"molecular_target": "Neu5Gc(a2-8)Neu5Gc(a2-3)Gal(b1-4)GlcNAc", "procedure,_shortened": "as §1"}},
  "note": "The other results are listed elsewhere or left out.",
  "data": [
    {"binder": "Sebin2 (Coprinopsis cinerea), A8PE78 (protein) MTTPFYAYCHNVQDDNTWRLGLVFANRSTADEWWRAISEATSSIPITKSITRVTPQYYTHDIRVWNMYNFFVDGNIKSISDKFRGRLFITLEYDRSGRGVSVFPPLHIVDHVSGNWYYIRSKTAPHLFWFYDETRNAIYASKEKRTRFKVSIRNPSPQTPKDAIMINSDDVVIHIKESLYVGVDSYLGHIIPTRAYRTFKFGELEGGAIAGIEVAENAEERCSSTFDGASLYFVGPDSSSPGEPWELV", "values": [
      {"measurement": "glycan array binding signal (z-score)", "setting": "[1]", "value": 0.423},
      {"measurement": "glycan array binding signal (z-score)", "setting": "[2]", "value": 0.544},
      {"measurement": "glycan array binding signal (z-score)", "setting": "[3]", "value": -0.101},
      {"measurement": "glycan array binding signal (z-score)", "setting": "[4]", "value": 0.518},
      {"measurement": "glycan array binding signal (z-score)", "setting": "[5]", "value": -0.323},
      {"measurement": "glycan array binding signal (z-score)", "setting": "Neu5Ac(a2-6)GalNAc", "value": -0.525},
      {"measurement": "glycan array binding signal (z-score)", "setting": "[6]", "value": -0.487},
      {"measurement": "glycan array binding signal (z-score)", "setting": "[7]", "value": -0.011},
      {"measurement": "glycan array binding signal (z-score)", "setting": "[8]", "value": 0.189},
      {"measurement": "glycan array binding signal (z-score)", "setting": "[9]", "value": -0.675},
      {"measurement": "glycan array binding signal (z-score)", "setting": "Neu5Ac(a2-8)Neu5Ac", "value": -0.211},
      {"measurement": "glycan array binding signal (z-score)", "setting": "[10]", "value": 0.353},
      {"measurement": "glycan array binding signal (z-score)", "setting": "[11]", "value": 0.26},
      {"measurement": "glycan array binding signal (z-score)", "setting": "[12]", "value": -0.726},
      {"measurement": "glycan array binding signal (z-score)", "setting": "[13]", "value": -0.654},
      {"measurement": "glycan array binding signal (z-score)", "setting": "[14]", "value": -0.099},
      {"measurement": "glycan array binding signal (z-score)", "setting": "[15]", "value": 0.144},
      {"measurement": "glycan array binding signal (z-score)", "setting": "[16]", "value": 0.72},
      {"measurement": "glycan array binding signal (z-score)", "setting": "[17]", "value": -0.065},
      {"measurement": "glycan array binding signal (z-score)", "setting": "[18]", "value": -0.094},
      {"measurement": "glycan array binding signal (z-score)", "setting": "[19]", "value": 0.32},
      {"measurement": "glycan array binding signal (z-score)", "setting": "[20]", "value": 0.103},
      {"measurement": "glycan array binding signal (z-score)", "setting": "[21]", "value": -0.304},
      {"measurement": "glycan array binding signal (z-score)", "setting": "[22]", "value": -0.437},
      {"measurement": "glycan array binding signal (z-score)", "setting": "Neu5Ac(b2-6)GalNAc", "value": -0.313},
      {"measurement": "glycan array binding signal (z-score)", "setting": "[23]", "value": 0.046},
      {"measurement": "glycan array binding signal (z-score)", "setting": "[24]", "value": -0.32},
      {"measurement": "glycan array binding signal (z-score)", "setting": "[25]", "value": -0.168},
      {"measurement": "glycan array binding signal (z-score)", "setting": "[26]", "value": -0.134},
      {"measurement": "glycan array binding signal (z-score)", "setting": "[27]", "value": -0.018},
      {"measurement": "glycan array binding signal (z-score)", "setting": "Neu5Gc(a2-3)Gal(b1-4)Glc", "value": 0.418},
      {"measurement": "glycan array binding signal (z-score)", "setting": "[28]", "value": 0.158},
      {"measurement": "glycan array binding signal (z-score)", "setting": "[29]", "value": 0.042},
      {"measurement": "glycan array binding signal (z-score)", "setting": "[30]", "value": -0.127},
      {"measurement": "glycan array binding signal (z-score)", "setting": "[31]", "value": 0.134},
      {"measurement": "glycan array binding signal (z-score)", "setting": "Neu5Gc(a2-6)GalNAc", "value": -0.242},
      {"measurement": "glycan array binding signal (z-score)", "setting": "[32]", "value": -0.359},
      {"measurement": "glycan array binding signal (z-score)", "setting": "[33]", "value": -0.571}
    ]}
  ]
}
